The text below walks through data of PubChem BioAssay AID488969 (Vanderbilt High Throughput Screening Facility, 2010).

In all, about 110,000 compounds were measured (“z-score”: median about -0.1, highest 2% from about 2 on). The list shows a part of the results. Active and inactive are the calls of the source.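 Rule for the calls: active = z-score in the third read window above 3 or below -3; inactive = the rest.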

The experiment addresses Metabotropic glutamate receptor 8 (Rattus norvegicus) (UniProt P70579). Briefly: rat mGluR8 modulators via GIRK flux, primary screen, cell-based, thallium flux, HTS (AID 488969). The conditions noted are these: HEK293 rat mGluR8, GIRK (G protein-gated inwardly rectifying potassium channel) thallium flux, FluoZin2; at 10 µM; stronger effect = higher value; submaximal glutamate (EC20) added with thallium.
Sequence of UniProt P70579 (P70579 whole entry, looked up): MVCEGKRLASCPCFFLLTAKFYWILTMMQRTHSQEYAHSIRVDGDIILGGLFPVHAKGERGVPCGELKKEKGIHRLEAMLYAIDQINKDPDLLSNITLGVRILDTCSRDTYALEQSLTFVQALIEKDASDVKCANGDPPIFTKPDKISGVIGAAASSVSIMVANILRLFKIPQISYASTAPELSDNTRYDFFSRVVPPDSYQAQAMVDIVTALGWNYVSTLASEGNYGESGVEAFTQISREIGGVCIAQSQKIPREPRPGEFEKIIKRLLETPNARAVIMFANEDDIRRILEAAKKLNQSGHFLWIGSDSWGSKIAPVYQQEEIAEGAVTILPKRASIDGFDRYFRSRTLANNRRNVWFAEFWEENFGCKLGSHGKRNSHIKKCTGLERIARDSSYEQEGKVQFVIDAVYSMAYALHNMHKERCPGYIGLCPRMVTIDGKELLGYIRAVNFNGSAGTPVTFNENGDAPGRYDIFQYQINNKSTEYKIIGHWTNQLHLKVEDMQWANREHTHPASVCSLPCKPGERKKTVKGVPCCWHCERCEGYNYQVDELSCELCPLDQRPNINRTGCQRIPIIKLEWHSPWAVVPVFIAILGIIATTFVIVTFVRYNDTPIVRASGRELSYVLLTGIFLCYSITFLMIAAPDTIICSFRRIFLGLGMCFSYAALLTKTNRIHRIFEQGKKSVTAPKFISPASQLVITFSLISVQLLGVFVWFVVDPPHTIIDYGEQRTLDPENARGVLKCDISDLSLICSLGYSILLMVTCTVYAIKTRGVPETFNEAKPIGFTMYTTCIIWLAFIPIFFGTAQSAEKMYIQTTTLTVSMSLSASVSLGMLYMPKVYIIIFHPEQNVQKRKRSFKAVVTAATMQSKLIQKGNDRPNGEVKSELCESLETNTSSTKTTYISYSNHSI
Molecule `Clc1cccc(Cl)c1CON/C=N/c1ncnc2sccc12` gave a z-score of 0.0115.
To `C=CCn1c(SCC(=O)Nc2cc(C)on2)nc2sc3c(c2c1=O)CCCC3` belongs 0.151; to `Cc1noc(C)c1C(=O)N1CCc2ccccc21`, -0.354; to `O=C(NNc1c(Cl)cc(Cl)cc1Cl)C1CCC1`, -0.0924.
With `CC(C)CNc1cc(N2CCCC2)ccc1[N+](=O)[O-]` the figure was -1.85; with `N/C(COc1ccccc1)=N\NS(=O)(=O)c1ccccc1`, -0.0376; with `COc1cccc(CNC(=O)CCS(=O)(=O)c2cccc3nsnc23)c1`, 0.124.
`COc1ccccc1NC(=S)NNC(=O)c1ccc(Cl)cc1Cl` showed a z-score of -0.541.
Take `O=C(c1ccc(Cl)cc1)c1cc(-c2ccccn2)c(N2CCOCC2)s1`: the z-score was -0.873.
For `COc1ccc(N2CCN(C(=O)Nc3cccc(C(F)(F)F)c3)CC2)cc1`, the z-score was -0.347.
Molecule `O=C(NCCN1CCN(C(=O)c2cc3ccccc3oc2=O)CC1)c1cc2ccccc2oc1=O` registered a z-score of 0.204.
Molecule `CCc1cccc(N=c2c([N+](=O)[O-])nn(-c3ccc(Cl)cc3)n2O)c1` had a z-score of -0.121.
The molecule `CCn1c2ccccc2c2cc(N=C3SC(CC(=O)Nc4ccccc4OC)C(=O)N3C)ccc21` (stereo unspecified) displayed a z-score of -0.0766.
With `O=c1c2c3c(sc2nc2n1CCCCC2)CCC3` the figure was -0.21.
In turn, `O=C(O)CNC(=O)c1ccc(S(=O)(=O)N2CCOCC2)cc1` returned a z-score of 0.515.
With `CCCCNC(=O)C1CC(=O)N(c2ccc(OC)cc2)C1c1ccc(OC)cc1` (stereo unspecified) the figure was -0.281; with `Nc1ccc(S(=O)(=O)N2CCCc3ccccc32)cc1`, -0.0978; with `Cc1cccc(OCC(=O)Nc2ccccc2N2CCN(C(=O)C(C)C)CC2)c1C`, -2.4.
Take `O=C(CN1C(=O)c2cccc3cccc(c23)C1=O)N1CCN(c2ccccn2)CC1`: the z-score is active: 8.64.
Consider `CCNS(=O)(=O)c1ccc(NC(=S)NCc2ccco2)cc1`, for which the z-score was -0.206.
`CCN(CC)C(=O)c1cc2c(=O)oc3ccccc3c2s1`: the z-score was -0.682.
On to `CCOC(=O)CSC1=C(C#N)C(c2ccccc2)C(C(C)=O)=C(C)N1` (stereo unspecified), for which the z-score is -0.808.
To `O=C(NCCCCO)C(F)(F)C(F)(F)C(F)(F)C(=O)NCCCCO` belongs 0.251; to `CC(C)n1c(=S)[nH]c2ccccc21`, -0.0644; to `CC(C)C(=O)N=C1SC2CS(=O)(=O)CC2N1Cc1ccccc1` (stereo unspecified), -0.173.
In turn, `Cc1ccc(C)c(Cn2c(CN(C)Cc3ccccc3)nc3c2c(=O)n(C)c(=O)n3C)c1` showed a z-score of -0.41.
`CCN1C(=O)/C(=C\N(C)C)NC1=S` registered a z-score of -0.121.
As to `CC(C)Cn1c(CCC(=O)O)ccc1-c1cccs1`, the z-score was determined as 1.1.
Take `O=S(=O)(NCc1ccc(F)cc1)c1cccc(S(=O)(=O)N2CCOCC2)c1`: the z-score is 0.531.
With `O=C(NNC(=O)c1ccc(SCC2CCCO2)c([N+](=O)[O-])c1)c1ccc(Cl)c([N+](=O)[O-])c1` (stereo unspecified) the figure was -0.537; with `Cc1cc(C(=O)NCC(=O)OCC(=O)N(C(C)C)C(C)C)ccc1[N+](=O)[O-]`, -0.0582; with `CCCCSc1nnc([C@H](CC(C)C)NC(=O)OC(C)(C)C)o1`, -0.246.
To `Cc1ccc(NC2OC(C(O)CO)C(O)C2O)cc1[N+](=O)[O-]` (stereo unspecified) belongs -0.123; to `Cc1ccc(C)c(CN2CCNC2=O)c1`, 0.218.
Take `O=c1c2ccccc2nc(-c2cccc(Cl)c2)n1O`: the z-score amounted to 1.74.
Regarding `Cc1cc2ccccc2c(=O)n1CC(=O)NCC(=O)N(C)C1CCCCC1`, the z-score worked out at 0.799.
For the molecule `CC1(C)CC(=O)C(N=Nc2ccc(Cl)cc2)=C(O)C1`, the z-score was -0.154.
To `Cc1cc(Oc2ccc(-c3nnc(-c4ccccc4)o3)cc2[N+](=O)[O-])ccc1Cl` belongs -0.279; to `C=CCn1c(=NC(=O)C2COc3ccccc3O2)sc2cc(S(N)(=O)=O)ccc21` (stereo unspecified), 0.0113.
In turn, `CCn1cc(C2=NOC(C(=O)Nc3ccc4c(c3)OCO4)C2)c(C)n1` (stereo unspecified) had a z-score of 0.0389.
The molecule `COc1cccc(/C=N/NC(=O)CSCC(=O)Nc2ccccc2)c1O` showed a z-score of -0.191.
To `CCOC(=O)CNC(=O)c1sc(NC(=O)c2ccccc2)nc1C` belongs 0.176.
As for `CCOc1cc(/C=N/NC(=O)Cc2ccc(C(F)(F)F)cc2[N+](=O)[O-])c(Br)cc1OC`, the z-score is -0.0757.
Molecule `COC(=O)c1nn(-c2ccccc2)c2nnc(Cc3ccc(C)cc3)c(=O)n12` gave a z-score of -0.114.
`Nc1c(C(=O)Nc2ccc(Br)cc2)sc2nc(-c3ccco3)ccc12` had a z-score of 0.0153.
`COc1ccc(-n2c(COc3ccccc3)nnc2SCc2ccc(C#N)cc2)cc1` gave a z-score of 0.247.
For the molecule `CC(C)C(c1nnnn1Cc1ccco1)N1CCC(C(N)=O)CC1` (stereo unspecified), the z-score is 0.191.
To `COc1cc(NC(=S)N2CCC(C(N)=O)CC2)cc(OC)c1` belongs -0.169; to `Cc1ccc(-n2ncc(C#N)c2/N=C/N2CCN(C)CC2)cc1`, -0.463.
With `COc1cc2cc(CN(Cc3ccc4c(c3)OCO4)C(=O)c3ccco3)c(=O)[nH]c2cc1OC`, the z-score was -0.66.
`Cc1nc(-c2cccc(NS(=O)(=O)c3ccc4ccccc4c3)c2)cs1`: the z-score turned out to be 0.0725.
With `COCC(=O)Nc1ccc(Nc2ccccc2)cc1` the figure was 0.124; with `Cc1ccccc1NC(=O)C(c1ccccc1)C1CCCC1` (stereo unspecified), -0.329; with `Cc1cc(OCC(=O)Nc2ccc(OCc3ccccc3)cc2)nc(C(C)C)n1`, 0.00365.
With `COc1cc(Cl)c(C)cc1NC(=O)CSc1nnc(-c2cccnc2)n1Cc1ccco1` the figure was -2.15.
For `Cc1cc(C(=O)Nc2nc3ccc(S(C)(=O)=O)cc3s2)c(C)o1`, the z-score was -0.188.
Turning to `CNc1nnc(-c2ccncc2)s1`, the z-score is -0.566.
With `CCCc1nnc(NC(=O)CC(=O)OCC)s1` the figure was -0.966.
`CNC(=O)c1cc(C)c(-c2ccccc2)s1` returned a z-score of 1.08.
In turn, `Cc1cc2ncn(/N=C/c3ccc([N+](=O)[O-])s3)c2cc1C` came in with a z-score of -0.187.
Molecule `COc1ccc(C2C3=C(CC(c4ccco4)CC3=O)Nc3ccccc3N2C(C)=O)cc1` (stereo unspecified) returned a z-score of -0.217.
Take `O=c1[nH]c(=O)n(C2CCCO2)cc1Br` (stereo unspecified): the z-score was -0.195.
`COc1ccc(C(O)C(CN2CCOCC2)c2ccccc2)cc1` (stereo unspecified) had a z-score of -0.181.
`CS(=O)(=O)c1sc2nc(-c3ccccc3)cc(-c3ccccc3)c2c1N`: the z-score is 0.56.
Consider `Cc1ccccc1Cn1cnc2c(cnn2C(C)(C)C)c1=O`, for which the z-score came out at 0.463.
Take `Cn1nnnc1SCC(=O)Nc1c(Cl)cccc1Cl`: the z-score is 0.508.
Molecule `CC(C)c1ccc(C(=O)CSc2ncn[nH]2)cc1` yielded a z-score of -0.4.
To `COc1ccc(C)cc1NC(=O)C(Sc1ccccc1)c1ccccc1` (stereo unspecified) belongs 0.296.
To `Cc1ccc2nc(SCc3cccc([N+](=O)[O-])c3)nc(C)c2c1` belongs -0.0375; to `Cc1cc(C)n(-c2nc(NCCC(C)C)c3c4c(sc3n2)COC(C)(C)C4)n1`, -0.867.
To `CCOc1ccc(C2=C(C=Nc3c(C)n(C)n(-c4ccccc4)c3=O)C(c3ccc(F)cc3)c3ccccc3O2)cc1` (stereo unspecified) belongs 1.53.
